Assay results published in the RNAGym collection of RNA variant scans (doi:10.7554/elife.90254).
Read counts are not given, so values of variants with three or more changes are uncertain.

B1: OR4K15 (parent)
chain: GUUAACGGUCAUAGGCCAUGGAAACUAGGAGCACCAUUUCGCUGCCAGUGAAGAAAUGAACAAAGAAAAUCUGGGCCAGGCAGGCAUCAAAAGAAAUAGUCUUGCGCUCAACCAGAAAGUCUGUAAUCAUUUUAAGGGUA

Variants of: B1
Assay: self-cleavage, relative activity (ratio to wild type); higher = more cleavage; in vitro, sequencing; the parent is a self-cleaving ribozyme

Row | Variant | self-cleavage
1 | U49C U57A U103G A111G | 0.01
2 | A18G A64G U100C U132A | 1.92
3 | U39C A68G A95G | 2.04
4 | A30G A62U A64U A98G | 0.24
5 | G14U A23G A60G A90G A94G A96U | 1.24
6 | G7U U12C G41A | 1.31
7 | A13G C61U U72G | 0.18
8 | G83U A95G G106A A125G | 0
9 | U19C A51G A56G A66G | 1.02
10 | U9A A36G C101A | 0.24
11 | A5G A64U U127C U131C | 0.49
12 | C40U A60G U131G U132G G137A | 1.92
13 | A59G A116G U120A | 0.41
14 | U3A U38C A86G | 0.96
15 | A33G U49C A86G | 0.65
16 | A47G A90G U102C C105U | 0.6
17 | U49C A51U U70C U133C | 0.17
18 | A11U C32U A89U U102C | 1.86
19 | A94G U130C U139G | 0.85
20 | A18C U38C A92G | 1.44
21 | U43C A94U A116G U131C | 0.22
22 | U9C A60G A64G U100C | 1.55
23 | A22G A51G A125G | 0.45
24 | U19C A89G A116U U130C | 0.11

Row | Variant | self-cleavage
25 | U12C A22U A59G | 0.11
26 | G44A A62G U108C | 0.04
27 | A4G A5G A55G U70A A92G A94G U132A | 0.95
28 | A51G A54G A55U A86G A126G U130C | 0.25
29 | U9C C77A A90G | 0.75
30 | U2C A18G A114G | 1.1
31 | A23G A36G A82G A96G A140G | 0.9
32 | U9C U37C A116G | 1.55
33 | U19C A59G A62G | 1.07
34 | U19A A52G A82G U130A | 0.14
35 | U102G U103C A116U | 0.03
36 | A5U A56G U100C | 0.5
37 | U2A G65A A67G A95U | 1.43
38 | A18G A24G A96G | 0.92
39 | A5G A22G A51G A60U U122A | 1.59
40 | A51G A82G A94G G137U | 0.5
41 | A11U A82U A96G | 0.23
42 | A55G A114C U122C U131C U132C | 0.01
43 | U12A A54G U131C | 1.07
44 | A59G A111G A117G | 0.02
45 | A23G A27U C40A A47G U122C | 1.32
46 | U9C A66U U70C G84A A96G | 0.69
47 | C10A A27C A56G A78G | 0.3
48 | A59G A68C A118G | 1.51

Row | Variant | self-cleavage
49 | U19C A95U A126G A135U | 1.09
50 | A54G A60G A63G U132C | 0.97
51 | A18G C35U A78U U120A U127C | 0.16
52 | A96U U103C U122A U127C | 0.78
53 | U43C A52G U72A A111C | 0.02
54 | A11G U39C A55U | 0.89
55 | A47G U108C A117G | 0.01
56 | U2C A117G A118G | 0.46
57 | U2C A51U A69G | 1.01
58 | G8U U9C U19C | 1.85
59 | A27G U43C A125G | 0.18
60 | U9A A18G A22G | 1.42
61 | U39C A66U U103C A116G | 0.45
62 | A56G A59G U87A A95G A111G G137A | 0
63 | U19C A56G U57A A116G | 0.96
64 | U38C U49C A54G A63G G104A | 0.04
65 | A59U A82G A92U A98G | 0.25
66 | U2A G7U A55G A94G U108G C113U | 0
67 | A63G G84A U102A A117U | 0.93
68 | A60G A82G A95G U120C | 0.23
69 | A59G A63G U70C U120G A129G U130C | 0.32
70 | U19C A24U A66U A95G A118U | 0.85
71 | U2A A13G A33G A47G A52G | 0.38
72 | U39C A60G A118G | 0.9

Row | Variant | self-cleavage
73 | G15A A68G G79A A86G | 0.06
74 | C35U G84A A90G | 1.46
75 | A22G A55G A86G U103C U122C A129G | 0.28
76 | A51G A66U A69G | 0.99
77 | A5G U38C A47G U87C | 1.36
78 | U87C U97A U108C | 0
79 | A30G U43C G74A A82G | 0.36
80 | A23G A47G A54G A96G | 0.07
81 | A11U A56G G99A | 0.96
82 | A11U U39C U43A A94G | 1.27
83 | A64G A66G A67G C107G | 0.09
84 | U9C A78G A90U A118G | 0.41
85 | A47U A63U A117G | 1.47
86 | A27G U39C A86G A96C G119C | 0.12
87 | U9A A11G A62C U103C | 0.95
88 | A4G C25A A27G U72G A89G | 0.42
89 | A13G A56G U57C C71A A111G | 0.02
90 | U57G U130C A140G | 0.91
91 | A11G U39C A55G | 1.31
92 | U57G A62G U72C U103C A111G A114G U122C | 0.01
93 | A62U A67G A78U A134U | 0.41
94 | C16U U19A A59G A78G U103C C113U | 0.03
95 | U2C U12C A24G U70A | 1.18
96 | A36G U122A U133A | 0.18

Row | Variant | self-cleavage
97 | U38C A118G U127C | 0.51
98 | A96C U108C A118G | 0.01
99 | U39A U57C A67G A94G C109U A114U A117G | 0.01
100 | U3C U9C A60G | 1.2
101 | G50A U57C A90G | 0.87
102 | A86U A94G A117G U131C | 2.84
103 | A5G U9A A62G A86G A92G | 0.95
104 | A5G A11G G74A | 0.26
105 | A33G A82G A94G | 0.4
106 | A11C U19C U103C | 1.13
107 | U26C A67G A78G A96G | 0.32
108 | A63U A82G U87G | 0.2
109 | A13G U87C A125G | 0.61
110 | A54G A67G U108C A116G U133C | 0.01
111 | U43C C46U A59G A62G A114G | 0.35
112 | U19C A47U C107A U139A | 0.02
113 | A36G A68G A129U | 1.11
114 | A36G C40U U122C | 0.85
115 | A22G A92G A95G A118G A135G | 2.67
116 | U12C A67G U108C | 0.03
117 | A5G U9A A18G A90G | 1.13
118 | A33U A91G A125U U132C | 1.99
119 | U2A A24G U43A A69G A126C | 1.07
120 | A30G U131C G137A | 0.91

Row | Variant | self-cleavage
121 | U38G A55G U72C | 0.34
122 | A52G U100A U127C | 0.4
123 | U9G A86G A118G | 0.52
124 | A18G A55G A135G | 1.02
125 | U9C A24C A89U A111G | 0.04
126 | G29A U38C A67G A86G | 1.5
127 | A30G A62U A135U | 1.27
128 | U19C U37C U57C A129G U132C | 2.35
129 | A5G G74A A92G U108C U120C | 0.01
130 | A18G U43C U102A U130C | 0.77
131 | A30G A51G A60U | 2.15
132 | A82G A114G A116C | 0.01
133 | U26A U57C A69G U72A A78G | 0.24
134 | A4G A55G A59C U103C | 0.91
135 | G58U A60C A92G G136C | 1.64
136 | A51G A63G A118G A126U U131C | 0.28
137 | A4G A52G A68G | 1.08
138 | A66U G79A U108C U120G A129U | 0.01
139 | A52G G53U A118G | 0.95
140 | U49C A91G A114U A134G | 0.06
141 | A52G U122C U131A | 0.73
142 | A18G A52U U57C U70A A89U | 1.08
143 | A11G A63G A78G A126G | 0.13
144 | A5U U9C A51G A89G U122C | 1.42

Row | Variant | self-cleavage
145 | A13U A18G G31U U70C A95G | 1.32
146 | G15A A47G A62G A118G U131C | 0.08
147 | A52G A66U U103A A125G | 0.23
148 | U19C U72C U100G | 0.28
149 | G21A A52G C109U | 0.68
150 | A56G U70C U133C | 1.39
151 | A11G A18U A51G A55U U131C | 0.37
152 | C17U A56G A135G | 0.9
153 | A11G A22G A89U | 2.19
154 | A30U A64U A69G U122C | 0.5
155 | U3C A30G A54G A56G | 1.23
156 | A59G G73A A78G A95G | 0.33
157 | A11U A23G A96G | 0.42
158 | U12C U43G A126G | 1.81
159 | U12C G14A A30G U103C U133C | 1.37
160 | U9C U39C A114U U122A U124A | 0.04
161 | A27G A55G U122C A129G | 0.32
162 | A24C U37C A55G | 1.81
163 | A52G A55G U57A U87C U127A | 0.86
164 | U2A U3C A60G A78U U131C | 0.36
165 | A22G U39C U57C | 1.36
166 | A36U U37C A82C A94G | 0.1
167 | A59G A95G A111G | 0.04
